Details: in water at 50° C. for 3 days

O=P([O-])([O-])O[C@H]1[C@H](OP(=O)([O-])[O-])[C@@H](OP(=O)([O-])[O-])[C@H](OP(=O)([O-])[O-])[C@@H](OP(=O)([O-])[O-])[C@H]1OP(=O)([O-])[O-].[Na+].[Na+].[Na+].[Na+].[Na+].[Na+].[Na+].[Na+].[Na+].[Na+].[Na+].[Na+] [Na12IP6, dodecasodium salt of inositol hexaphosphate]
Decomposition by 31P-NMR: no significant decomposition
